# Source: PubChem BioAssay AID1347120 (National Center for Advancing Translational Sciences (NCATS), 2019)
# Where “and” joins values, the source holds several entries; their conditions need not be identical. Equal entries are not always repeated. The whole screen tested about 390,000 compounds, of which about 930 (0.24%) were called active. Inconclusive means that the source gave no clear call. Such entries were picked first, then a sample of the others. The call rests on the fitted dose curve; in most records, active means well fitted activation curve with a large enough effect; inconclusive means small, poorly fitted or top-dose-only effect; inactive means no such curve, though single readings can be large or run the other way. A potency beside an inconclusive call is a rough fit, not a confirmed value.
# Assay: qHTS for Suppressors of FUS Proteinopathy: Primary screen using FUS-linked yeast assay; further: nearly all actives have a fitted effect of over 55% in size
# Conditions: S. cerevisiae FUS-expressing, OD600, 24 h; Potency: growth rescue; series mostly up to 76.6 µM
# Procedure, shortened: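 S. cerevisiae expressing FUS from galactose induction served as the toxicity model. Growth after 24hr at 30C, read as absorbance at 600 nm, indicates suppression of toxicity; compounds dosed at several concentrations.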
# Potency means the concentration at half of the fitted maximal effect; tags describe the fitted curve by direction and shape.
row,SMILES,Potency
1,CCCCN(C)c1c(C)nc2ccc(C(=O)Nc3cc(-c4ccccc4)ccc3OC)cn12,"inconclusive: 28.2 µM [activator, single point]"
2,COc1ccc(-c2nc(CSCC(=O)N3CCN(c4cccc(C)c4C)CC3)c(C)o2)cc1OC,active: 25.1 µM
3,COc1cccc(C(=O)NCCNc2nc3cc(C)cc(C)c3cc2C#N)c1,inactive
4,C[C@H](CO)N1C[C@H](C)[C@@H](CN(C)C(=O)Nc2ccccc2)Oc2ccc(NC(=O)Nc3ccccc3)cc2C1=O,"inconclusive: 31.6 µM [activator, single point]"
5,COc1ccc(CCNC(=O)c2ccc3c(c2)c(C)c(C)n3Cc2ccc(F)cc2)c(OC)c1OC,"inconclusive: 20 µM [activator, partial curve, poor fit]"
6,Cc1ccc(C(=O)NC(=S)NNC(=O)COc2ccccc2C)cc1,inactive
7,O=C(CN1C(=O)c2ccccc2C1=O)NCc1ccncc1,inactive
8,Cc1cc(NC(=O)c2ccc(F)cc2)n(-c2ccccn2)n1,inactive
9,CCCCCCNC(=O)O[C@H]1CN(C(=O)OC(C)C)N(C(=O)OC(C)C)[C@@H]2CN(S(=O)(=O)c3ccc(C)cc3)C[C@]12O,"inconclusive: 17.8 µM [activator, partial curve]"
10,COc1cccc(CN(C(=O)c2oc3cc(C)ccc3c2C)C2CCS(=O)(=O)C2)c1 (stereo not drawn),"inconclusive: 28.2 µM [activator, single point]"
11,NC(=O)CC[C@@H]1NC(=O)[C@H](CO)NC(=O)c2cc([N+](=O)[O-])cc(I)c2NCCC[C@@H](C(N)=O)NC(=O)[C@H](Cc2ccc(O)cc2)NC1=O,"inconclusive: 44.7 µM [activator, single point]"
12,CN(C)C(=O)c1cccc(-c2cccc(-c3nc(C(=O)NCc4ccccc4)cc4c3[C@@H](CCO)N(S(=O)C(C)(C)C)C4)c2)c1 (stereo partly drawn),active: 35.5 µM
13,CC(=O)N1CCN(c2nc(CC(C)C)c3c(c2C#N)CCC3)CC1,inactive
14,CCCCCCCCN1C(=O)[C@H](CC(=O)NCCCOC)C[C@@]2(C(=O)OCC)CCCC=C12,active: 12.6 µM
15,CC(C)(C)OC(=O)NCCCCCNC(=O)c1nc[nH]c1C(=O)NCC(=O)OCc1ccccc1,"inconclusive: 31.6 µM [activator, single point]"
16,CCCCN(C=O)c1c(CC)nc2c(OCc3cc(Cl)cc(Cl)c3)cccn12,"inconclusive: 50.1 µM [activator, single point]"
17,CCN1CCN(CCNC(=O)c2ccc(/C=C3\Sc4ccccc4N(Cc4ccccc4F)C3=O)cc2)CC1,"inconclusive: 56.2 µM [activator, partial curve, poor fit]"
18,CC1C(=O)N(Cc2cn(Cc3ccco3)nn2)CCS(=O)(=O)N1Cc1ccc(-c2cccc(CO)c2)cc1 (stereo not drawn),"inconclusive: 15.8 µM [activator, partial curve, poor fit]"
19,COc1ccc(C)cc1NC(=O)c1ccc2c(SCC(=O)O)c3c(nc2c1)CCCC3,inactive
20,COc1cccc(-c2ccc(CC[C@H]3O[C@H]4CC[C@H](CO)O[C@H]4C[C@H]3NS(C)(=O)=O)cc2)c1,"inconclusive: 28.2 µM [activator, single point]"

row,SMILES,Potency
1,CCOC(=O)[C@]12CCCC=C1N(Cc1ccc3c(c1)OCO3)C(=O)[C@H](CC(=O)N1CCC(c3ccccc3)CC1)C2,"inconclusive: 17.8 µM [activator, partial curve]"
2,COc1cccc(-c2nc(NCC3CCCO3)c3ccccc3n2)c1O (stereo not drawn),inactive
3,O=C(CCC1CCCCC1)NCCN1C2=NC[C@@H](Cc3ccccc3)N2C[C@H]1Cc1ccc(O)cc1,"inconclusive: 25.1 µM [activator, partial curve, poor fit]"
4,COc1ccccc1N1CCN(C(=O)CN2C(=O)COc3ccc(S(=O)(=O)N4CCCCCC4)cc32)CC1,"inconclusive: 50.1 µM [activator, single point]"
5,CCn1c(SCC(=O)Nc2nccs2)nnc1-c1ccncc1,"inconclusive: 50.1 µM [activator, single point]"
6,CC(C)CC1Nc2ncnc(N3CCN(c4ccccc4)CC3)c2N(Cc2ccc(Br)cc2)C1=O (stereo not drawn),"inconclusive: 12.6 µM [activator, partial curve, poor fit]"
7,CC(C)=CCC[C@](C)(O)C1CC[C@]2(C)C1[C@H](O)CC1[C@@]3(C)CC[C@H](O[C@@H]4O[C@H](CO)[C@@H](O)[C@H](O)[C@H]4O[C@@H]4O[C@H](CO)[C@@H](O)[C@H](O)[C@H]4O)C(C)(C)C3CC[C@]12C (stereo partly drawn),"inconclusive: 15.8 µM [activator, partial curve, poor fit]"
8,O=c1cc(O)nc(SCc2ccccc2)n1-c1ccccc1,"inconclusive: 28.2 µM [activator, partial curve, poor fit] and inconclusive: 20 µM [activator, partial curve, poor fit]"
9,Cc1c(CC(=O)N2CCN(C(=O)C3COc4ccccc4O3)CC2)c(=O)oc2cc(O)ccc12 (stereo not drawn),"inconclusive: 31.6 µM [activator, single point]"
10,CCC[C@H]1[C@@H](OC(=O)NCc2ccc(Cl)c(Cl)c2)CC[C@@]23CCCN2C(=O)CCC[C@@H]13,"inconclusive: 20 µM [activator, partial curve, poor fit]"
11,COC(=O)C1=CN(Cc2ccc(OC)c(OC)c2)C=C(C(=O)OC)C1c1cccs1,"inconclusive: 44.7 µM [activator, partial curve, poor fit]"
12,COc1ccccc1OCCCn1cc(C#N)c2ccccc21,inactive
13,O=S(=O)(Nc1cc(F)ccc1F)c1ccc2[nH]c3c(c2c1)CCCC3,"inconclusive: 25.1 µM [activator, partial curve]"
14,COCCCNC(=O)/C(C#N)=C/c1c(N2CCN(c3ccccc3)CC2)nc2c(C)cccn2c1=O,"inconclusive: 44.7 µM [activator, single point]"
15,CCOc1ccc(CCN2C(=O)C(=O)N([C@@H](Cc3ccccc3)CN3CCC[C@H]3CN3C(=O)C(=O)NC[C@@H]3Cc3ccc(O)cc3)C[C@@H]2Cc2ccc(O)cc2)cc1,"inconclusive: 10 µM [activator, partial curve, poor fit]"
16,COc1ccc(-c2c(N)cnc(C(=O)O)c2C)c(OCc2ccccc2)c1OC,"inconclusive: 12.6 µM [activator, partial curve, poor fit]"
17,Cc1cccc(C)c1NC(=O)C(c1ccnc2ccccc12)n1c(=O)c(-c2ccccc2)nc2ccccc21 (stereo not drawn),"inconclusive: 2.82 µM [activator, full curve, poor fit]"
18,O=C(CN1C(=O)c2ccccc2S1(=O)=O)NCCSCc1ccco1,"inconclusive: 12.6 µM [activator, partial curve, poor fit]"
19,Cc1ccccc1-n1c(=O)cc(NCc2ccc3c(c2)OCO3)[nH]c1=O,"inconclusive: 12.6 µM [activator, partial curve, poor fit]"
20,CCc1cc(=O)oc2cc(C)c(CN3CCCC3)c(O)c12,"inconclusive: 17.8 µM [activator, partial curve, poor fit]"

row,SMILES,Potency
1,O=C(Cn1nnc(-c2cc(Cl)ccc2-n2cnnn2)n1)N1CCCc2ccccc21,"inconclusive: 50.1 µM [activator, single point]"
2,O=C1CCCN1CCCNS(=O)(=O)c1ccccc1,inactive
3,Cc1cc(C)cc(NC(=O)Cn2cc(S(=O)(=O)NC(C)(C)C)c(S(=O)(=O)NC(C)(C)C)c2)c1,"inconclusive: 31.6 µM [activator, single point]"
4,COc1cc(C=NN2CCN(C(c3ccccc3)c3ccccc3)CC2)cc(OC)c1OC(C)=O,inactive
5,COCCNC(=S)Nc1ccc(N2CCOCC2)c(S(=O)(=O)Nc2ccccc2OC)c1,"inconclusive: 35.5 µM [activator, single point]"
6,O=C(CSc1nnc(SCc2ccccc2)s1)NNC(=S)Nc1ccccc1,"inconclusive: 22.4 µM [activator, single point]"
7,CC1CCCCN1S(=O)(=O)c1ccc(C(=O)Nc2nnc(-c3ccncc3)o2)cc1 (stereo not drawn),"inconclusive: 39.8 µM [activator, single point]"
8,S=C(Nc1ccc(Oc2ccccc2)cc1)NC1CCCC1,inactive
9,CC(=O)Nc1cccc(NC(=O)c2cc([N+](=O)[O-])ccc2N2CCCCC2)c1,"inconclusive: 22.4 µM [activator, single point]"
10,CCN(c1ccccc1)S(=O)(=O)c1ccc(Oc2ccc(C(C)=O)cc2OC)nc1,"inconclusive: 44.7 µM [activator, single point]"
11,COc1cccc2c1cc1c(=O)n(CC(=O)N3CCN(c4ccc(Cl)cc4)CC3)nc(C)n12,inactive
12,NNC(=O)c1cc2cc3ccccc3nc2s1,inactive
13,COc1ccc(NC(=O)CS(=O)c2ccc(F)cc2)cc1 (stereo not drawn),inactive
14,COC(=O)CN1C(=S)N(Cc2ccccc2)C(=O)C1CC(=O)Nc1ccc(Br)cc1 (stereo not drawn),"inconclusive: 44.7 µM [activator, partial curve, poor fit]"
15,Cc1ccc2scc(N3CCc4ccccc4C3)c(=O)c2c1,"inconclusive: 50.1 µM [activator, single point]"
16,CCc1c(C(=O)Nc2ccccc2)c(C)[nH]c(=S)c1C#N,"inconclusive: 31.6 µM [activator, single point]"
17,CCCC(=O)C1=C(c2ccccc2)C(C#N)(C#N)C(C#N)=C1N,"inconclusive: 35.5 µM [activator, single point]"
18,C=CCN1[C@H](C)COc2cccc(N3CCCC3)c2S1(=O)=O,inactive
